# Screen size: about 50,000 compounds; about 800 (1.6%) showed an effect of 50% or more. The list shows a part of the results.
# Target: Bcl-2-like protein 10 (Homo sapiens) (UniProt Q9HD36)
# Experiment: Phenotype converters, Bcl-B/TR3 peptide binding displacement, primary biochemical FP (AID 1240);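 note: 0% = Bcl-B with tracer peptide and DMSO and 100% = tracer peptide lacking Bcl-B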
# Details: GST-Bcl-B / FITC-TR3 peptide fluorescence polarization; stronger effect = higher value; compound at 3.75 mg/L
# Sequence of UniProt Q9HD36 (Q9HD36 whole entry, looked up): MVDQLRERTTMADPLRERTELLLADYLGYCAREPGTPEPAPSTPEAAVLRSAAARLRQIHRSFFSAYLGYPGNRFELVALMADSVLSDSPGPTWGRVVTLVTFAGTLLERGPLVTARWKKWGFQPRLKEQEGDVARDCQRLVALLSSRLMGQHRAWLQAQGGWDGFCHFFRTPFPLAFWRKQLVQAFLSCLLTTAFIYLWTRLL
row,Compound,displacement
1,O=C(c1ccccc1)N1CCN(C(=O)c2ccccc2)C1,-1.7%
2,Oc1[nH]c2ccccc2c1C1=NCCC1,2%
3,c1coc(-c2nc3sc(-c4ccco4)nc3s2)c1,44.5%
4,Cc1cc(N(CCO)CCO)nc(-n2nc(C)cc2C)n1,0.4%
5,CCCc1ncc(C(O)c2ccccc2OC)n1C (stereo not drawn),-3.3%
6,CCCCCSc1nnc2nc(C)cc(C)n12,-5.3%
7,Nc1nc2nc(C(F)(F)C(F)(F)C(F)(F)C(F)(F)F)cc(=O)n2[nH]1,-1.7%
8,O=C(NCCNC(=O)c1c(O)c2ccccc2oc1=O)c1ccccc1,-5.5%
9,NS(=O)(=O)c1ccc(CCNC2CC(=O)N(CCc3ccccc3)C2=O)cc1 (stereo not drawn),-6.8%
10,Nc1nc(OCC(F)(F)C(F)F)cc(-c2ccccc2)n1,-6%
11,COc1ccc(S(=O)(=O)N2CCN(C(=O)c3ccc([N+](=O)[O-])cc3)CC2)cc1,7.3%
12,CNC(=O)c1ccc(CN2CCC(Cc3ccccc3)CC2)cc1,-13.5%
13,COc1cc(OC)c(C2Nc3cccc4cccc(c34)N2)c(OC)c1,30.3%
14,COC(=O)c1ccccc1NC(=O)CN(c1cc(C)cc(C)c1)S(=O)(=O)c1ccccc1,5%
15,CCCCSc1nnc(-c2ccc(Br)cc2)o1,-11.4%
16,COc1ccc(-c2nc3cc(NC(=O)c4ccc5c(c4)OCCO5)ccc3o2)cc1Cl,-7%
17,COC(=O)c1c(NC(=O)CCc2ccccc2)sc2c1CCC(C)C2 (stereo not drawn),-5.7%
18,N#CSCCCOc1ccc(Br)cc1,-4.7%
19,CCc1ccccc1NC(=O)CN(c1ccc(C)cc1)S(=O)(=O)c1ccc(SC)cc1,11.6%
20,CCOc1ccc(N(CC(=O)N[C@@H]2C[C@H]3CC[C@@H]2C3)S(=O)(=O)c2ccc(SC)cc2)cc1,5.2%
21,CCc1ccc(N2CC(C(=O)Nc3c(CC)cccc3CC)CC2=O)cc1 (stereo not drawn),3%
22,Cc1cc(OCC(=O)Nc2ccccc2Cl)cc(C)c1Cl,-0.9%
23,Cc1ccc(S(=O)(=O)Nc2ccccc2C(N)=O)cc1,2.7%
24,NC1=NC(=O)/C(=C/c2ccc(OS(=O)(=O)c3cccc([N+](=O)[O-])c3)cc2)S1,10.1%
25,Cc1ccc(/C=N/NC(=O)C(C)Nc2cccc3ccccc23)o1 (stereo not drawn),43.3%
26,Cc1onc(-c2ccccc2)c1C(=O)Nc1ccccc1F,5.3%
27,COC(=O)CSC1=C(C#N)C(c2ccc(Cl)cc2)C2=C(CC(C)(C)CC2=O)N1 (stereo not drawn),-7.7%

row,Compound,displacement
1,COc1ccc(C(=O)Nc2cc(Cl)ccc2Cl)cc1NC(=O)C(C)Oc1ccccc1 (stereo not drawn),0.6%
2,COc1ccc(C2NC(=O)NC(C)=C2C(=O)OCCSC)cc1 (stereo not drawn),-4.2%
3,COc1cc(C=C2C(=O)NC(=S)NC2=O)cc(Br)c1O,11.8%
4,Cc1cccc(C)c1N(CC(=O)NN=C1CCCCCCC1)S(C)(=O)=O,-2.4%
5,COc1cc(C(=O)NC(NC(=S)Nc2ccc(F)cc2)C(Cl)(Cl)Cl)cc(OC)c1OC (stereo not drawn),-9.6%
6,O=C1/C(=C\c2cccc(Br)c2)SC(=S)N1c1cccc(C(F)(F)F)c1,18.2%
7,Cc1cccc(S(=O)(=O)N2CCSC2c2cccc(Cl)c2)c1 (stereo not drawn),-0.3%
8,COc1ccc(/C=N/n2cnnc2)cc1COc1ccc(NC(C)=O)cc1,21%
9,COC(=O)c1ccc(OCc2ccc(COc3ccc(C(=O)OC)cc3)cc2)cc1,3.2%
10,Cc1ccc(NC(=O)c2cccc3c(Br)cccc23)c([N+](=O)[O-])c1,-1.9%
11,CCOC(=O)C1=C(C)N=c2s/c(=C\c3ccc(OC)cc3)c(=O)n2C1c1ccc(Cl)cc1 (stereo not drawn),18.8%
12,O=C1/C(=C/c2ccc(O)c([N+](=O)[O-])c2)SC(=S)N1Cc1ccccc1,12.2%
13,O=C(Nc1cccc(Cl)c1Cl)c1cc2ccccc2o1,5.7%
14,Cc1ccc(OCCNC(=O)c2ccc(C)cc2)cc1,6.9%
15,O=C(NCc1cccs1)NC12CC3CC(CC(C3)C1)C2,-4.8%
16,COc1ccccc1NC(=O)C1=C(C)NC(=S)NC1c1cccc(OC)c1OC (stereo not drawn),-14%
17,Cc1ccc(Cl)cc1NC(=O)c1ccc(CN(c2ccccc2)S(C)(=O)=O)cc1,10.7%
18,CC(C)OC(=O)c1cc2n(n1)C(C(F)(F)F)CC(c1cccs1)N2 (stereo not drawn),5.1%
19,CN1CCN(C(=O)/C(=C\c2cccs2)NC(=O)c2cccs2)CC1,0.6%
20,Cc1c(C(=O)O)cccc1-n1c(=O)c2cc3c(=O)n(-c4cccc(C(=O)O)c4C)c(=O)c3cc2c1=O,14%
21,CCOC(=O)c1c(NC(=O)c2ccco2)sc(C(=O)Nc2cc(C(F)(F)F)ccc2Cl)c1C,7.6%
22,O=C(Nc1ccc(-c2nc3ccccc3c(=O)o2)cc1)c1cccc([N+](=O)[O-])c1,-5.5%
23,Cc1onc(-c2ccccc2Cl)c1C(=O)NN,-10.7%
24,CC1=C(C(=O)OCCc2ccccc2)C(c2ccccc2[N+](=O)[O-])NC(=O)N1C (stereo not drawn),-2.5%
25,O=C(Cn1c(NCCO)nc2ccccc21)c1ccc([N+](=O)[O-])cc1,9.3%
26,O=C(NCc1ccc2c(c1)OCO2)c1ccc(Cl)cc1[N+](=O)[O-],-14.5%

# — PubChem BioAssay AID1240 (Sanford-Burnham Center for Chemical Genomics, 2008)
